This passage reports binding results from publication PMC6570896.

The chains behind the UniProt entries cited, without tags or fusion partners. Where a name states a change or a piece, a line headed by the entry shows the natural chain unless it says otherwise. Residues count along the entry.
UniProt Q9ZW35: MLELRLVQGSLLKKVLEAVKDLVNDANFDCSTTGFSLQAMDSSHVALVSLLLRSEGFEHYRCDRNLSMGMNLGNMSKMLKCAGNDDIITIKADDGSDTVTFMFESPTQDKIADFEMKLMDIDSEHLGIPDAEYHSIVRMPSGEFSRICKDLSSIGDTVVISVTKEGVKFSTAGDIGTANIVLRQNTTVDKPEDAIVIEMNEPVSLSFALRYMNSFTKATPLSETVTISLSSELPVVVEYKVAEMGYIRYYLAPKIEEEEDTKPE
UniProt Q9FXM3: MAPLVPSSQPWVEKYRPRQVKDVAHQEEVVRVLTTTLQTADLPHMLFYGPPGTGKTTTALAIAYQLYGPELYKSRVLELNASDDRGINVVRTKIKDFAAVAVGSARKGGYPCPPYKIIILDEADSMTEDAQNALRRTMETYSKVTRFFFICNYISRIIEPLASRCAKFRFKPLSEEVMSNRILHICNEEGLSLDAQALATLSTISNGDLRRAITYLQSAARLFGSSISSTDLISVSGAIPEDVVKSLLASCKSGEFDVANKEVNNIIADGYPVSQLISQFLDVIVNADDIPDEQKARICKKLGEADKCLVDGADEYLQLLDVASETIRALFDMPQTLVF
OsRFC2 with a deletion of 100 aa in its C-terminal (rice (Oryza sativa)): residues 1-239 of Q9FXM3
OsRFC2 Δ140–339 (rice (Oryza sativa)): residues 1-139 of Q9FXM3
UniProt Q9M7Q7: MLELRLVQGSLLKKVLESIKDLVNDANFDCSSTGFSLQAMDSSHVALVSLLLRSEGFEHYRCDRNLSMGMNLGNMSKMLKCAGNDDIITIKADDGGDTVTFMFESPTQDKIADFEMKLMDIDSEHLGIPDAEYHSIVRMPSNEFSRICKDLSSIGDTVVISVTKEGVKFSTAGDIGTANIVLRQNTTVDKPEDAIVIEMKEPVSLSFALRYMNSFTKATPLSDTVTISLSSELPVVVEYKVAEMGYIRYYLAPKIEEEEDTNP
UniProt P17070: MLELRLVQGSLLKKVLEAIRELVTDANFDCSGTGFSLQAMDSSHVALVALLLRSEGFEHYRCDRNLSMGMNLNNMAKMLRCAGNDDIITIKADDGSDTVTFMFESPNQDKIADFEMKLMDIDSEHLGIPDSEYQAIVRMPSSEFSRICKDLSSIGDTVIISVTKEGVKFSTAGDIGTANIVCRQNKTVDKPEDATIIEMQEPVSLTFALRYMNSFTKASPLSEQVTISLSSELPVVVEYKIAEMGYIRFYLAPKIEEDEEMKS

Common to all, as to assay: split reporter; BiFC: fusions to YFP^N (1-155 aa) and YFP^C (156-239 aa) co-expressed transiently in Nicotiana benthamiana leaf epidermal cells; YFP seen by confocal microscopy
Experiment [1] addresses AtPCNA2-YFP^C (Arabidopsis thaliana) (UniProt Q9ZW35).
For experiment [2], the target named is T1, OsRFC3 Δ62–361 (rice (Oryza sativa)) (UniProt Q6YZ54).
T1 sequence: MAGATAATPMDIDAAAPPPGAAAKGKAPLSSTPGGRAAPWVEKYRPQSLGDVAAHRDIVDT

Experiment [3] has as its target OsRFC2 Δ140–339 (rice (Oryza sativa)) (UniProt Q9FXM3).
For experiment [4], the target named is T2, OsRFC4 Δ1–222 (rice (Oryza sativa)) (UniProt Q7XRX1).
T2 sequence: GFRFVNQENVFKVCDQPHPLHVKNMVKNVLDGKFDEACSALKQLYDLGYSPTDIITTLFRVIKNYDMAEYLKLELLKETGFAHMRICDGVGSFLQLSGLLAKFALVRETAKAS

The target of experiment [5] is T3, OsRFC3 Δ1–245 (rice (Oryza sativa)) (UniProt Q6YZ54).
T3 sequence: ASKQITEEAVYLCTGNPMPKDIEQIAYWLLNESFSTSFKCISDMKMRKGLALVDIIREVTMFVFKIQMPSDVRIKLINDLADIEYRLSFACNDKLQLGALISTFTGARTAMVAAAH

For experiment [6], the target named is OsRFC2 with a deletion of 100 aa in its C-terminal (rice (Oryza sativa)) (UniProt Q9FXM3).
For experiment [7], the target named is T4, OsRFC1 Δ640–1021 (rice (Oryza sativa)) (UniProt Q2R2B4).
T4 sequence: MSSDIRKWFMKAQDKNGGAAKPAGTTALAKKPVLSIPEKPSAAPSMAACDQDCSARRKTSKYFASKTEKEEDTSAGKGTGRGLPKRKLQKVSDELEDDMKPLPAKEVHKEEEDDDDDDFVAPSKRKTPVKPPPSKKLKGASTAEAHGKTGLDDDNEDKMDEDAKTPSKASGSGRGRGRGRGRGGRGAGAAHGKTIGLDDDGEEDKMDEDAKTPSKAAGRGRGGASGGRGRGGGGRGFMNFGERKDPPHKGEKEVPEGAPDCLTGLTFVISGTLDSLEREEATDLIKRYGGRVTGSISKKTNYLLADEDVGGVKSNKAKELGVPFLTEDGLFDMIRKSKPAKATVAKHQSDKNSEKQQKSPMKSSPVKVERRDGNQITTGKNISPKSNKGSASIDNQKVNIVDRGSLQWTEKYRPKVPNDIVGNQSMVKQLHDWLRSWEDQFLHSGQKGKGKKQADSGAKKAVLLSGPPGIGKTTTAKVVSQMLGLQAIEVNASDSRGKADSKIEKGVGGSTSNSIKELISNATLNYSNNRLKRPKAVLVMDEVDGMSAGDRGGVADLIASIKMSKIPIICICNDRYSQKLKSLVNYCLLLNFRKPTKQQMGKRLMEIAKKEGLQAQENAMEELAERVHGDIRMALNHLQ

Experiment [8] concerns the target T5, OsRFC3 Δ37–361 (rice (Oryza sativa)) (UniProt Q6YZ54).
T5 sequence: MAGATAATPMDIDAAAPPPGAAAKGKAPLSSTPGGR

Experiment [9] addresses T6, OsRFC5 Δ1–300 (rice (Oryza sativa)) (UniProt Q852K3).
T6 sequence: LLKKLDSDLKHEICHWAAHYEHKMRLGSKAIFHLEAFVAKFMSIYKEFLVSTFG

No constants are given. Whether binding was seen depends on the method and setting. In cells and extracts the contact can be indirect. Some results given as binding are weak or reduced against the parent protein; the word gives no strength.

For “AtPCNA1-YFP^C (from UniProt Q9M7Q7 1-263)”, in [1], the binding result is recorded as “binds”.

For the substance “OsPCNA-YFP^C (from UniProt P17070 1-263)”, the binding result in [2] was “binds”; in experiment [3], “no binding”; in experiment [4], “binds”; in experiment [5] it was “binds”; in [6] it was “binds”; in experiment [7], “no binding”. For the same substance, the binding result in experiment [8] and in experiment [9] was “no binding” throughout.
